Holding throughout (assay type): in vivo
Assay [1] has as its system Blumeria graminis f. sp. hordei. Briefly: Test Example D: Powdery mildew on barley. The following applies: Powdery mildew on barley.
Another assay has as its system Alternaia brassicicola. Briefly: Test Example C: Alternaria sooty spot on cabbage. The note with it: for Test C control value: Alternaria sooty spot on cabbage; for control value, Test C (Alternaria sooty spot on cabbage): Table 7, Test C.
The subject of the next assay is Plasmopara viticola. Briefly: Test Example G: Downy mildew on vine. The note with it: for Test G control value: Downy mildew on vine, 250 ppm sprayed, 2.5 ml/pot, 7 to 10 days after inoculation; for control value, Test G (downy mildew on vine): 250 ppm sprayed (2.5 ml/pot) before inoculation, assessed 7 to 10 days after inoculation.
The test system of the next assay is Botrytis cinerea. Briefly: Test Example B: Gray mold on tomato. The following applies: for Test B control value: Gray mold on tomato; for control value, Test B (gray mold on tomato): Table 7, Test B.
For a further assay, the system named is Puccinia recondita. The experiment in a line: Test Example E: Brown rust on wheat. The following applies: for Test E control value: Brown rust on wheat; for control value, Test E (brown rust on wheat): Table 7, Test E.

Turning to `CN1C(=O)CCC(c2cccs2)=C1c1c(F)cccc1F` [Compound 1], in assay [1], the “Test D control value” is reported as “L (L shows the control value of 50% or less)”. Besides, in the assay with Alternaia brassicicola, the “Test C control value” is recorded as “L (L shows the control value of 50% or less)”. In the assay with Plasmopara viticola, the “Test G control value” was “L (L shows the control value of 50% or less)”. Besides, in the assay on Botrytis cinerea, the “Test B control value” is “L (L shows the control value of 50% or less)”. Also, the “Test E control value” in the assay on Puccinia recondita is recorded as “L (L shows the control value of 50% or less)”.
For the compound `CN1C(=O)CCC(c2ccsc2)=C1c1c(F)cccc1F` [Compound 3], the “Test D control value” in assay [1] is “L (L shows the control value of 50% or less)”. Besides, the “Test C control value” in the assay with Alternaia brassicicola is listed as “L (L shows the control value of 50% or less)”. For the same compound, the “Test G control value” with Plasmopara viticola is listed as “H (H shows the control value more than 50%)”. Also, the “Test B control value” with Botrytis cinerea was “L (L shows the control value of 50% or less)”. Further, the “Test E control value” with Puccinia recondita is given as “H (H shows the control value more than 50%)”.
Take `CCN1C(=O)CCC(c2ccsc2)=C1c1c(F)cccc1F` [Compound 4]: the “Test D control value” in assay [1] is reported as “H (H shows the control value more than 50%)”. Moreover, in the assay on Alternaia brassicicola, the “Test C control value” was “L (L shows the control value of 50% or less)”. The “Test G control value” in the assay with Plasmopara viticola was “H (H shows the control value more than 50%)”. Moreover, the “Test B control value” in the assay on Botrytis cinerea is recorded as “L (L shows the control value of 50% or less)”. The “Test E control value” in the assay with Puccinia recondita was “H (H shows the control value more than 50%)”.
Turning to `CCn1c(-c2c(F)cc(F)cc2F)c(C2OCCO2)cc(Cl)c1=O` [Compound 9], in assay [1], the “Test D control value” was “H (H shows the control value more than 50%)”. In addition, the “Test C control value” in the assay with Alternaia brassicicola was “H (H shows the control value more than 50%)”. For the same compound, in the assay with Plasmopara viticola, the “Test G control value” is “L (L shows the control value of 50% or less)”. In addition, the “Test B control value” with Botrytis cinerea was “H (H shows the control value more than 50%)”. Moreover, the “Test E control value” with Puccinia recondita was “L (L shows the control value of 50% or less)”.
For `CCn1c(-c2c(F)cc(OC)cc2F)c(C2OCCCO2)cc(Cl)c1=O` [Compound 10], the “Test D control value” in assay [1] is on record as “L (L shows the control value of 50% or less)”. Further, the “Test C control value” with Alternaia brassicicola was “H (H shows the control value more than 50%)”. Moreover, the “Test G control value” with Plasmopara viticola is “L (L shows the control value of 50% or less)”. In addition, the “Test B control value” in the assay with Botrytis cinerea was “H (H shows the control value more than 50%)”. The “Test E control value” with Puccinia recondita is on record as “L (L shows the control value of 50% or less)”.
With `CCn1c(-c2c(F)cccc2F)c(C2OCCCO2)cc(Cl)c1=O` [Compound 11], the “Test D control value” in assay [1] was “H (H shows the control value more than 50%)”. Also, in the assay with Alternaia brassicicola, the “Test C control value” was “H (H shows the control value more than 50%)”. In the assay on Plasmopara viticola, the “Test G control value” is reported as “L (L shows the control value of 50% or less)”. In addition, the “Test B control value” in the assay with Botrytis cinerea is recorded as “L (L shows the control value of 50% or less)”. Moreover, in the assay on Puccinia recondita, the “Test E control value” is on record as “H (H shows the control value more than 50%)”.
Regarding `CCn1c(-c2c(F)cc(OC)cc2F)c(C2OCCO2)cc(Cl)c1=O` [Compound 12], the “Test D control value” in assay [1] is listed as “L (L shows the control value of 50% or less)”. Moreover, in the assay with Alternaia brassicicola, the “Test C control value” is on record as “H (H shows the control value more than 50%)”. For the same compound, the “Test G control value” in the assay on Plasmopara viticola is “L (L shows the control value of 50% or less)”. In the assay on Botrytis cinerea, the “Test B control value” is reported as “H (H shows the control value more than 50%)”. Further, the “Test E control value” with Puccinia recondita is reported as “H (H shows the control value more than 50%)”.
For the compound `CCn1c(-c2c(F)cccc2F)c(C2OCCO2)cc(Cl)c1=O` [Compound 13], the “Test D control value” in assay [1] is on record as “L (L shows the control value of 50% or less)”. In addition, the “Test C control value” with Alternaia brassicicola is “H (H shows the control value more than 50%)”. In the assay with Plasmopara viticola, the “Test G control value” is given as “L (L shows the control value of 50% or less)”. Moreover, in the assay with Botrytis cinerea, the “Test B control value” was “H (H shows the control value more than 50%)”. Moreover, in the assay with Puccinia recondita, the “Test E control value” is on record as “H (H shows the control value more than 50%)”.
Take `Cn1c(-c2c(F)cccc2F)c(-c2cccs2)ccc1=O` [Compound 14]: the “Test D control value” in assay [1] is “H (H shows the control value more than 50%)”. Also, in the assay with Alternaia brassicicola, the “Test C control value” is on record as “L (L shows the control value of 50% or less)”. Besides, the “Test G control value” in the assay on Plasmopara viticola was “H (H shows the control value more than 50%)”. Moreover, the “Test B control value” in the assay on Botrytis cinerea is listed as “H (H shows the control value more than 50%)”. Further, in the assay on Puccinia recondita, the “Test E control value” is recorded as “H (H shows the control value more than 50%)”.
Take `Cn1c(-c2c(F)cccc2F)c(-c2ccsc2)ccc1=O` [Compound 15]: the “Test D control value” in assay [1] is reported as “H (H shows the control value more than 50%)”. In addition, the “Test C control value” in the assay with Alternaia brassicicola is “L (L shows the control value of 50% or less)”. Moreover, the “Test G control value” in the assay on Plasmopara viticola is “L (L shows the control value of 50% or less)”. Further, in the assay with Botrytis cinerea, the “Test B control value” was “H (H shows the control value more than 50%)”. For the same compound, the “Test E control value” in the assay with Puccinia recondita is “H (H shows the control value more than 50%)”.
Consider `CCn1c(-c2c(F)cccc2F)c(-c2ccsc2)ccc1=O` [Compound 16], for which, in assay [1], the “Test D control value” is on record as “H (H shows the control value more than 50%)”. In addition, the “Test C control value” with Alternaia brassicicola is on record as “H (H shows the control value more than 50%)”. In addition, the “Test G control value” in the assay with Plasmopara viticola is recorded as “L (L shows the control value of 50% or less)”. Moreover, the “Test B control value” with Botrytis cinerea is “H (H shows the control value more than 50%)”. Besides, the “Test E control value” with Puccinia recondita was “H (H shows the control value more than 50%)”.
In the case of `CCn1c(-c2c(F)cc(F)cc2F)c(-c2nn(C)cc2C)cc(Cl)c1=O` [Compound 19], in assay [1], the “Test D control value” is “H (H shows the control value more than 50%)”. Besides, the “Test C control value” in the assay on Alternaia brassicicola was “H (H shows the control value more than 50%)”. Moreover, in the assay on Plasmopara viticola, the “Test G control value” is “L (L shows the control value of 50% or less)”. In the assay with Botrytis cinerea, the “Test B control value” is recorded as “H (H shows the control value more than 50%)”. For the same compound, the “Test E control value” in the assay with Puccinia recondita is “H (H shows the control value more than 50%)”.
Take `CCn1c(-c2c(F)cc(F)cc2F)c(-c2c(Cl)cnn2C)cc(Cl)c1=O` [Compound 22]: the “Test D control value” in assay [1] is “H (H shows the control value more than 50%)”. Further, the “Test C control value” in the assay with Alternaia brassicicola is listed as “H (H shows the control value more than 50%)”. For the same compound, the “Test G control value” in the assay with Plasmopara viticola is “H (H shows the control value more than 50%)”. Also, the “Test B control value” in the assay on Botrytis cinerea is given as “H (H shows the control value more than 50%)”. Moreover, the “Test E control value” with Puccinia recondita is on record as “H (H shows the control value more than 50%)”.
Consider `COc1ccc(-c2c(-n3cc(Cl)cn3)cc(Br)c(=O)n2CC(F)F)c(F)c1` [Compound 215], for which the “control value, Test C (Alternaria sooty spot on cabbage)” value (shortened to “control value, Test C”) in the assay on Alternaia brassicicola was “H (H shows the control value more than 50%)”. Besides, the “control value, Test G (downy mildew on vine)” value (“control value, Test G” for short) with Plasmopara viticola is recorded as “H (H shows the control value more than 50%)”. Besides, the “control value, Test B (gray mold on tomato)” value (“control value, Test B” below) in the assay on Botrytis cinerea is listed as “H (H shows the control value more than 50%)”. The “control value, Test E (brown rust on wheat)” value (“control value, Test E” for short) in the assay on Puccinia recondita is reported as “H (H shows the control value more than 50%)”.
Consider `CCn1c(-c2ccccc2C)c(-n2ncc(C)c2Cl)cc(Br)c1=O` [Compound 245], for which, in the assay on Alternaia brassicicola, the “control value, Test C” value is given as “H (H shows the control value more than 50%)”. For the same compound, in the assay with Plasmopara viticola, the “control value, Test G” value is reported as “L (L shows the control value of 50% or less)”. The “control value, Test B” value in the assay with Botrytis cinerea was “H (H shows the control value more than 50%)”. In the assay with Puccinia recondita, the “control value, Test E” value was “H (H shows the control value more than 50%)”.
With `CCn1c(-c2ccccc2OC)c(-n2ncc(C)c2Cl)cc(Cl)c1=O` [Compound 248], the “control value, Test C” value in the assay on Alternaia brassicicola is “H (H shows the control value more than 50%)”. Moreover, the “control value, Test G” value in the assay on Plasmopara viticola was “L (L shows the control value of 50% or less)”. Also, the “control value, Test B” value in the assay on Botrytis cinerea was “H (H shows the control value more than 50%)”. Besides, the “control value, Test E” value in the assay with Puccinia recondita is “H (H shows the control value more than 50%)”.
With `CCn1c(-c2ccccc2[N+](=O)[O-])c(-n2cc(Cl)cn2)cc(Br)c1=O` [Compound 257], in the assay on Alternaia brassicicola, the “control value, Test C” value was “L (L shows the control value of 50% or less)”. Moreover, the “control value, Test G” value with Plasmopara viticola is “L (L shows the control value of 50% or less)”. Further, in the assay on Botrytis cinerea, the “control value, Test B” value was “H (H shows the control value more than 50%)”. In the assay on Puccinia recondita, the “control value, Test E” value is listed as “L (L shows the control value of 50% or less)”.
As for `O=c1c(Br)cc(-n2cc(Cl)cn2)c(-c2ccccc2F)n1CC(F)F` [Compound 278], the “control value, Test C” value in the assay with Alternaia brassicicola was “H (H shows the control value more than 50%)”. Moreover, the “control value, Test G” value with Plasmopara viticola is recorded as “H (H shows the control value more than 50%)”. Besides, in the assay with Botrytis cinerea, the “control value, Test B” value is “H (H shows the control value more than 50%)”. The “control value, Test E” value with Puccinia recondita is listed as “H (H shows the control value more than 50%)”.
With `CCn1c(-c2ccc(F)cc2Cl)c(-n2cc(F)cn2)cc(Cl)c1=O` [Compound 328], in the assay with Alternaia brassicicola, the “control value, Test C” value is “H (H shows the control value more than 50%)”. In the assay on Plasmopara viticola, the “control value, Test G” value is “L (L shows the control value of 50% or less)”. Moreover, the “control value, Test B” value in the assay with Botrytis cinerea is “H (H shows the control value more than 50%)”. Further, the “control value, Test E” value in the assay with Puccinia recondita was “H (H shows the control value more than 50%)”.
In the case of `CCn1c(-c2ccc(F)cc2Br)c(-n2cc(F)cn2)cc(Cl)c1=O` [Compound 352], the “control value, Test C” value with Alternaia brassicicola is “H (H shows the control value more than 50%)”. Moreover, in the assay with Plasmopara viticola, the “control value, Test G” value is “L (L shows the control value of 50% or less)”. In the assay on Botrytis cinerea, the “control value, Test B” value was “H (H shows the control value more than 50%)”. The “control value, Test E” value in the assay on Puccinia recondita was “H (H shows the control value more than 50%)”.

(Values after US11178870B2 (priority 2017, dated 2021).)
